# Laboratory results from PubChem BioAssay (NCATS).
# Where “and” joins values, the source holds several entries; their conditions need not be identical. Equal values may be shown once. This list was built around the results that the source calls inconclusive (neither active nor inactive); the mix of calls is not that of the screen. Where the call is inconclusive, the potency comes from a doubtful curve fit. The source holds several records for some structures; these can differ, active in one and inactive in another. Calls of active or inactive are those of the source. Unless noted, calls follow the shape of the dose curve; as a rule, active = well fitted curve in the direction sought with a large enough effect; inconclusive = small, poorly fitted or top-dose-only effect, or another doubt; inactive = no such curve, though single readings can be large; an effect the other way counts as inactive or inconclusive.
# Tested on: Zika virus NS2B-NS3 protease (linked construct)
# Assay: Primary screen NINDS Rhodamine qHTS for Zika virus inhibitors (AID 1347160); also: nearly all actives have a fitted effect of over 55% in size
# Conditions: purified NS2B-NS3 protease, Rhodamine110 substrate fluorescence; activity change, negative = inhibition: at 57.1 µM (top of the series) unless noted; series mostly up to 57.1 µM
# Summary of the method: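 Each compound, titrated, sat 15 min with 25 nM linked protease before 1.5 microM Rhodamine110 substrate went in. Fluorescence gain over the next 15 min, in pH 8.0 Tris with Tween 20, gave Hill-fitted curves.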
# Potency is read from the fitted curve at half-maximal effect; tags tell the direction and shape of the fitted curve.
row,Structure (SMILES),Potency
1,C=C1CCC2C(C)(C)CCCC2(C)C1CC/C(C)=C\CO (centres undefined),"inconclusive: 14.1 µM [inhibitor, partial curve]"
2,CCCCc1ccc(NS(=O)(=O)c2ccc(F)cc2)cc1,"inconclusive: 22.4 µM [inhibitor, partial curve, poor fit]"
3,OC[C@H]1O[C@@H](OCCc2ccccc2)[C@H](O[C@@H]2OC[C@@H](O)[C@H](O)[C@H]2O)[C@@H](O)[C@@H]1O,"inconclusive: 17.8 µM [inhibitor, single point]"
4,C=CC(C)(C)c1[nH]c2ccccc2c1C[C@@H]1NC(=O)[C@H](C)NC1=O,"inconclusive: 25.1 µM [inhibitor, partial curve, poor fit]"
5,CC(C)[C@@H](c1ccc(C(F)(F)F)cc1CN(Cc1cc(C(F)(F)F)cc(C(F)(F)F)c1)c1nnn(C)n1)N1CCC(C(=O)O)CC1,"inconclusive: 5.01 µM [inhibitor, full curve]"
6,C=C1CCC2C(C)(CO[C@@H]3O[C@H](CO)[C@@H](O)[C@H](O)[C@H]3O)C(O)CCC2(C)C1C(=O)CC1=CCOC1=O (some centres undefined),"inconclusive: 10 µM [inhibitor, partial curve]"
7,CN(C)c1ccc(NC(=O)NS(=O)(=O)c2ccc(Cl)cc2)cc1,"inconclusive: 39.8 µM [inhibitor, single point]"

# Tested on: not listed separately
# Assay: A High-Content qHTS Against Drug Library for the Identification of Small Molecules that Inhibit DYT1 Early Onset Primary Dystonia-Associated Cell Pathology (AID 1645839; calls by dose curve)
# Conditions: HEK293 Flp-In EGFP-delE TorsinA, punctate imaging, 48 h; series mostly up to 46.1 µM; % pathology change, negative = correction: at the top concentration
# Summary of the method: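 High-content imaging quantified EGFP-TorsinA mislocalization in HEK293-derived cells inducibly expressing DYT1 mutant torsinA, after 48 h exposure to compound given together with tetracycline induction. Cell count served as a toxicity channel alongside %pathology.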
Structure (SMILES),Potency,"% pathology change, negative = correction"
CC(=O)[C@H]1CC[C@H]2[C@@H]3C=CC4=CC(=O)CC[C@@]4(C)[C@@H]3CC[C@]12C,"inconclusive: 28.2 µM [inhibitor, single point]",–
COc1cc(C(=O)OC(COCCC(C)C)CN2CCOCC2)cc(OC)c1OC (centres undefined),–,inactive: -9.18%
O=C(NC1CCN(CCc2c[nH]c3ccccc23)CC1)c1ccccc1,"inconclusive: 22.4 µM [inhibitor, partial curve, poor fit]",–

# Molecular target: Cytochrome P450 2D6 (Homo sapiens) (UniProt P10635)
# Sequence of UniProt P10635 (P10635 whole entry, looked up): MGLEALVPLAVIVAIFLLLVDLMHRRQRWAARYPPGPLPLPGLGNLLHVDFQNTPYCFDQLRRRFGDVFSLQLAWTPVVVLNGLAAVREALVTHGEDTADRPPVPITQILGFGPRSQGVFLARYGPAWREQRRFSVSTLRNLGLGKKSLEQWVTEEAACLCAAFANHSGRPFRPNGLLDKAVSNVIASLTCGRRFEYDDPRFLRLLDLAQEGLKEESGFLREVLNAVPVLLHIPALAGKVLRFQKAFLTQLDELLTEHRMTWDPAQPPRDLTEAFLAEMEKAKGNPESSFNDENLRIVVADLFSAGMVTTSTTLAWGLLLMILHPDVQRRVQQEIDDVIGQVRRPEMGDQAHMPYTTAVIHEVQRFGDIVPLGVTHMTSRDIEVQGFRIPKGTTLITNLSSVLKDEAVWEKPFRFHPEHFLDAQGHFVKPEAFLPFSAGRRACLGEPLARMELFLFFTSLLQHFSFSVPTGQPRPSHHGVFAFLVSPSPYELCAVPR
# Assay: Cytochrome P450 family 2 subfamily D member 6 (CYP2D6) small molecule antagonists: luciferase biochemical (cell-free) qHTS assay (AID 1645840; active = well fitted curve in the direction sought with a large enough effect in the repeat runs; inconclusive = weak or mixed curves; inactive = no such curve, though single readings can be large; an effect the other way counts as inactive or inconclusive; also: nearly all actives have a fitted effect of over 55% in size; as to activity change, negative = inhibition: % is scaled to controls: 0 for no effect and ±100 for the full control effect)
# Conditions: P450-Glo CYP2D6 enzyme, luciferin luminescence, 1 h; series mostly up to 57.4 µM; activity change, negative = inhibition: at the top concentration
# Summary of the method: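 P450-Glo CYP2D6 system: proluciferin substrate converted by enzyme to luciferin, read by luminescence proportional to activity. Enzyme-substrate mix with compound 10 min at room temperature, then NADPH regeneration 1 h before detection reagent.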
Structure (SMILES),Potency,"activity change, negative = inhibition"
CN(C)CC#CCCC(=O)C(O)(c1ccccc1)C1CCC1 (centres undefined),"inconclusive: 21.3 µM [inhibitor, single point]",–
CN1C(=O)CC(c2ccccc2)C1=O (centres undefined),–,inactive: -7.94%
COC(=O)[C@H](Cc1ccc([N+](=O)[O-])cc1)NC(=O)c1cccc2ccccc12,active: 2.13 µM,–
O=C(O)[C@H]1Cc2ccccc2CN1,–,inactive: 4.56% [at 11.5 µM]
CNc1nc(C)nc(N[C@H]2CCC[C@@H](C(=O)NCc3ccc(C#N)cc3C(F)(F)F)C2)n1,"inconclusive: 21.3 µM [inhibitor, single point]",–
CN(CCCOc1ccc(Cc2ccccc2)cc1)CCC(=O)O,–,inactive: 7.21%

# Molecular target: Cytochrome P450 2C9 (Homo sapiens) (UniProt P11712)
# Sequence of UniProt P11712 (P11712 whole entry, looked up): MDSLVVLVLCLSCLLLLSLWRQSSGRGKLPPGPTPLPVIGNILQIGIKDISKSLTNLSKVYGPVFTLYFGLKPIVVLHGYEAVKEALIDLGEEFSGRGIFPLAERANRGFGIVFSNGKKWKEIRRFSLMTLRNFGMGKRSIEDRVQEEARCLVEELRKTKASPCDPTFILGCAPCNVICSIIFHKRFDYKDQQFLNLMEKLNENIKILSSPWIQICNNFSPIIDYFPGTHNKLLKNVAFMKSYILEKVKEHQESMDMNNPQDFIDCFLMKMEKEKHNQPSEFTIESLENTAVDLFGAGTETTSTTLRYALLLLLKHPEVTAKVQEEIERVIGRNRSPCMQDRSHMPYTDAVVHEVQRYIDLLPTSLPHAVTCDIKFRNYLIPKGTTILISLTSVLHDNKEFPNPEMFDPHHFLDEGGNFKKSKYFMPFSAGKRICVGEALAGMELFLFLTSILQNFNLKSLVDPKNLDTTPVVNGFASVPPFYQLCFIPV
# Assay: Cytochrome P450 family 2 subfamily C member 9 (CYP2C9) small molecule antagonists: luciferase biochemical (cell-free) qHTS assay (AID 1645842; active = well fitted curve in the direction sought with a large enough effect in the repeat runs; inconclusive = weak or mixed curves; inactive = no such curve, though single readings can be large; an effect the other way counts as inactive or inconclusive; also: nearly all actives have a fitted effect of over 55% in size; as to activity change, negative = inhibition: % is scaled to controls: 0 for no effect and ±100 for the full control effect)
# Conditions: P450-Glo CYP2C9 enzyme assay, luciferin luminescence; series mostly up to 57.4 µM; activity change, negative = inhibition: at the top concentration
# Summary of the method: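 P450-Glo CYP2C9 system: proluciferin substrate with enzyme in mix containing 0.4% BSA, 10 min at room temperature, then NADPH regeneration solution added and incubated 1 h at 37C. Detection reagent stopped reaction; luminescence read after 20 min as RLU.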
Structure (SMILES),Potency,"activity change, negative = inhibition"
CCCCc1ccc(NS(=O)(=O)c2ccc(F)cc2)cc1,active: 1.69 µM,–
CC(=O)[C@H]1CC[C@H]2[C@@H]3C=CC4=CC(=O)CC[C@@]4(C)[C@@H]3CC[C@]12C,"inconclusive: 13.8 µM [inhibitor, partial curve]",–
O=C(NC1CCN(CCc2c[nH]c3ccccc23)CC1)c1ccccc1,–,inactive: 6.12%

# Tested on: not listed separately
# Assay: Primary qHTS for inhibitors of nuclear receptor binding SET domain protein 2 (NSD2) in an isogenic RCH-ACV NSD2 p.E1099K mutant (9B) (AID 1645876); also: nearly all actives have a fitted effect of over 70% in size; as to activity change, negative = viability loss: % is scaled to controls: 0 for no effect and ±100 for the full control effect
# Conditions: RCH-ACV (leukaemia line) NSD2 E1099K (9B) viability, CellTiter-Glo, 72 h; series mostly up to 44.9 µM; activity change, negative = viability loss: at the top concentration
Structure (SMILES),Potency,"activity change, negative = viability loss",outcome
C=C1CCC2C(C)(C)CCCC2(C)C1CC/C(C)=C\CO (centres undefined),"inconclusive: 29 µM [inhibitor, partial curve, poor fit]",–,–
NC(=O)c1cccc(-c2cc(OC(=O)NC3CCCCC3)ccc2O)c1,"inconclusive: 20.5 µM [inhibitor, single point]",–,–
CC(NCCCc1cccc(C(F)(F)F)c1)c1cccc2ccccc12 (centres undefined),"inconclusive: 14.2 µM [inhibitor, single point]",–,–
COc1ccc([C@H](Cc2ccncc2)c2ccccc2)cc1OC1CCCC1,"inconclusive: 18.3 µM [inhibitor, single point]",–,–
CCCCc1ccc(NS(=O)(=O)c2ccc(F)cc2)cc1,"inconclusive: 20.5 µM [inhibitor, single point]",–,–
O=C(NC/C=C/CN1CCN(c2cccc(Cl)c2Cl)CC1)c1ccc(-c2ccccn2)cc1,"inconclusive: 10.3 µM [inhibitor, partial curve]",–,–
CC(=O)OC1C(OC(=O)c2ccccc2)C2C(C)(C)CCC(OC(C)=O)C2(C)C23CCC(C)(C2)C(=O)CC13 (centres undefined),"inconclusive: 14.2 µM [inhibitor, single point]",–,–
CC(=O)[C@H]1CC[C@H]2[C@@H]3C=CC4=CC(=O)CC[C@@]4(C)[C@@H]3CC[C@]12C,active: 13.3 µM and inactive,–,–
CC(=O)O[C@H]1[C@@]2(O)C[C@H](C)[C@H](OC(=O)c3ccccc3)[C@@H]2[C@@H](OC(=O)CO)[C@]2(OC(C)=O)C[C@H]3C(=O)C(C)(C)C[C@@H]3[C@@]1(C)[C@H]2OC(C)=O,"inconclusive: 9.63 µM [inhibitor, single point]",–,–
COc1ccc(C(=O)Nc2c(Cl)cncc2Cl)cc1OC1CCCC1,–,inactive: -7.47%,–
C=CC(C)(C)c1[nH]c2ccccc2c1C[C@@H]1NC(=O)[C@H](C)NC1=O,"inconclusive: 12.7 µM [inhibitor, partial curve]",–,–
C=CC(C)(O)CC[C@H]1C(=C)CCC2[C@](C)(C(=O)O)CCC[C@@]21C (some centres undefined),–,inactive: 2.77%,–
O=C(O)[C@H]1Cc2ccccc2CN1,–,–,inactive [at 4.96 µM]
O=[N+]([O-])c1ccc(Oc2ccc3c(c2)CCC(c2ccccc2)O3)nc1 (centres undefined),"inconclusive: 18.3 µM [inhibitor, single point]",–,–
CN(CCCOc1ccc(Cc2ccccc2)cc1)CCC(=O)O,"inconclusive: 29 µM [inhibitor, single point]",–,–
CC1OC(OC2C(O)COC(O[C@@H]3[C@@H](O)[C@@H](O)[C@H](OC4C(OC(=O)[C@]56CCC(C)(C)CC5C5=CCC7[C@@]8(C)C[C@H](O)[C@H](OC9OC(CO)C(O)C(O)C9O)[C@@](C)(CO)C8[C@H](O)C[C@@]7(C)[C@]5(C)CC6)OCC(O)C4O)O[C@H]3C)C2O)C(O)C(O)C1O (some centres undefined),"inconclusive: 3.07 µM [inhibitor, partial curve, poor fit]",–,–
O=C(NC[C@H](O)CN1CCc2ccccc2C1)c1ccnc(NC2CCC2)c1,"inconclusive: 8.17 µM [inhibitor, partial curve, poor fit] and inconclusive: 1.48 µM [inhibitor, full curve]",–,–
CN1CCc2cc3c(cc2C(=O)Cc2cc4c(cc2C1)OCO4)OCO3,–,inactive: -2.53%,–
CN(C)c1ccc(NC(=O)NS(=O)(=O)c2ccc(Cl)cc2)cc1,"inconclusive: 18.3 µM [inhibitor, single point]",–,–
O=C(NC1CCN(CCc2c[nH]c3ccccc23)CC1)c1ccccc1,"inconclusive: 29.9 µM [inhibitor, single point]",–,–
